PubChem BioAssay AID686971 (National Center for Advancing Translational Sciences (NCATS), 2013)
In all, about 360,000 compounds went through this assay and about 7,500 (2.1%) were called active. The inconclusive results got no clear call from the source; some entries with a clear call stand among them for comparison. The call rests on the fitted dose curve; in most records, active means well fitted cell-killing curve with a large enough effect; inconclusive means small, poorly fitted or top-dose-only effect, or effect the other way, or another doubt; inactive means no such curve, though single readings can be large or run the other way. Potencies of inconclusive entries are left out as doubtful fits.
Potency means the concentration at half of the fitted maximal effect; tags describe the fitted curve by direction and shape.

Experiment: qHTS for induction of synthetic lethality in tumor cells producing 2HG: qHTS for the HT-1080-IDH1KD cell line;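 on activity, negative = toxicity: 0% = DMSO wells and -100% = cell-free medium wells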
Conditions: HT-1080 IDH1 knockdown viability, ATP luminescence, 48 h; activity, negative = toxicity: at 46.1 µM (top of the series) unless noted
Summary of the method: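 Knockdown cells (IDH1KD HT-1080) received compounds 2 h after plating at 750 cells/well and were kept 48 h at 37 °C in 5% FBS RPMI. A CellTiter-Glo luminescence read gave % activity for curve fitting.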
With `S=C(Nc1ccccc1Cl)N1CCCCCC1` the “activity, negative = toxicity” value was inactive: 7.62%. For `Cc1ccc2nc(-c3ccncc3)cc(-c3ccccc3)c2c1`, the Potency was inconclusive [cytotoxic, single point]. In the case of `CC(O)(c1ccc(F)c(F)c1)c1nc(-c2ccc(S(C)(=O)=O)cc2)cs1` (configuration not stated), the Potency is reported as inconclusive [cytotoxic, single point]. With `COc1ccc(C(=O)N2N=C(c3cccc(NS(C)(=O)=O)c3)CC2c2cccs2)cc1` (configuration not stated) the Potency was inconclusive [cytotoxic, single point]. For `CCCN1CCc2c(sc(NC(=O)c3ccc(S(=O)(=O)N(C)c4ccccc4)cc3)c2C(N)=O)C1`, the activity, negative = toxicity was inconclusive: -30.7% [cytotoxic]. With `CCOC(=O)C1(Cc2cccc(OC)c2)CCN(Cc2cccc(OC)c2OC)CC1` the Potency was inconclusive [cytotoxic, single point]. For `COc1ccc(-c2nc3cc(C)ccn3c2NC2CCCCC2)cc1SC1CCCCC1`, the Potency was inconclusive [cytotoxic, single point]. For `Cc1cc(Cl)c(S(=O)(=O)NC2CCCC2)cc1OCC(=O)NC1CCCCC1`, the Potency was active: 20 µM. With `COc1ccc(N(C)C2=NS(=O)(=O)c3ccccc32)cc1` the Potency was active: 23.1 µM. For `CC(C)Cn1c(N)c(C(=O)COC(=O)c2nccnc2N)c(=O)n(C)c1=O`, the “activity, negative = toxicity” value was inactive: -0.15%. With `CC1(Cc2cccc(C(F)(F)F)c2)C(=O)Nc2ccc(-c3ccc(F)c(Cl)c3)cc21` (configuration not stated) the Potency was inconclusive [cytotoxic, single point]. With `CCSc1nsc(NC(=O)Nc2cccc(OC)c2)n1` the Potency was inconclusive [cytotoxic, single point]. With `O=C(NCc1ccco1)Nc1ccc([N+](=O)[O-])cc1` the “activity, negative = toxicity” value was inactive: 2.76%. In the case of `COc1ccc(C2CC(c3ccc(Cl)cc3)Nc3nc(NC(=O)c4ccco4)nn32)cc1` (configuration not stated), the Potency is reported as inconclusive [cytotoxic, single point]. With `CN(C)c1cccc(C(=O)N2CCCC(CCC(=O)NCc3ccccc3F)C2)c1` (configuration not stated) the Potency was inconclusive [cytotoxic, single point]. In the case of `CN(C)c1ccc(Nc2nc(N)c3ccccc3n2)cc1`, the Potency is reported as inconclusive [cytotoxic, single point]. In the case of `CN(Cc1ccccc1)c1cc2c(c3c1ccn3C)C1CCC2O1` (configuration not stated), the Potency is reported as inconclusive [cytotoxic, single point]. For `CCOC(=O)C1CCCN(C(=O)c2ccc3c(c2)C(C)(C)CCC3(C)C)CC1` (configuration not stated), the Potency was inconclusive [cytotoxic, single point]. For `Cc1ccc(OCC(=O)Nc2ccc3c(c2)nc(CCN2CCC(C)CC2)n3C)cc1`, the Potency was inconclusive [cytotoxic, single point]. In the case of `CC1=N/C(=C\c2ccccc2Cl)C(=O)O1`, the “activity, negative = toxicity” value is reported as inactive: 1.05%. With `COc1ccccc1NC(=O)CCc1c(C)nc2c(-c3ccc(F)cc3)c(C)nn2c1C` the “activity, negative = toxicity” value was inactive: 2.82%. For `CC1=C(C(=O)OCc2ccc3c(c2)OCO3)C(c2ccc(F)cc2)NC(=O)N1` (configuration not stated), the Potency was active: 5.01 µM. With `CC1C(=O)C(C)C(c2ccc([N+](=O)[O-])cc2)NC1c1ccc([N+](=O)[O-])cc1` (configuration not stated) the “activity, negative = toxicity” value was inactive: -18%. For `COc1ccccc1-c1nc(C(=O)NCC2CCCO2)cc2c1[nH]c1ccccc12` (configuration not stated), the “activity, negative = toxicity” value was inactive: -18.3%. For `Cc1ccc(OCc2ccc(C(=O)Nc3c(C)nn(Cc4c(F)c(F)c(F)c(F)c4F)c3C)o2)c([N+](=O)[O-])c1`, the Potency was inconclusive [cytotoxic, single point]. In the case of `COc1cc(C2c3cc4c(cc3C3OC(=O)C2C3CO)OCO4)cc(OC)c1OC` (configuration not stated), the Potency is reported as active: 0.0164 µM. With `N#Cc1cccc(Cn2cc(C(F)(F)F)ccc2=O)c1` the “activity, negative = toxicity” value was inactive: 3.98%. For `N#C/C(=C\N1CCOCC1)c1ccccc1`, the “activity, negative = toxicity” value was inactive: 0.0464%. In the case of `Oc1cccc2ccc(/C=C/c3ccccc3Br)nc12`, the Potency is reported as inconclusive [cytotoxic, partial curve]. With `CC1(Cc2ccc(F)c(Cl)c2)C(=O)Nc2c(Cl)cccc21` (configuration not stated) the Potency was inconclusive [cytotoxic, single point]. In the case of `Cc1nn(-c2ccc(NC(=O)c3ccncc3)cc2)c(C)c1Cl`, the Potency is reported as inconclusive [cytotoxic, full curve]. With `Cn1ccsc1=NC(=O)c1ccc(S(C)(=O)=O)c([N+](=O)[O-])c1` the Potency was inconclusive [cytotoxic, single point]. For `CCCCc1c(-c2ccc(OC)cc2)ncn1CCc1ccccc1OC`, the Potency was active: 16.4 µM. With `CN(C)S(=O)(=O)Nc1cc(Cl)cc(Cl)c1` the “activity, negative = toxicity” value was inactive: 16.2%. With `O=C(Nc1ccc(Oc2ccccc2)cc1)c1csc([C@@H]2O[C@H](CO)[C@H](O)[C@H](O)[C@H]2O)n1` the “activity, negative = toxicity” value was inactive: -6.14%. For `CC(C)Cc1cc(CN2CCCC(CO)(Cc3cccc(Cl)c3)C2)[nH]n1` (configuration not stated), the Potency was inconclusive [cytotoxic, single point]. For `O=C(CC(c1ccccc1)c1cc(Br)ccc1O)NCc1ccco1` (configuration not stated), the Potency was inconclusive [cytotoxic, single point]. For `Cc1cc(C)c(NC(=O)CN(C)C(C)C(=O)N2CCc3ccccc32)c(C)c1` (configuration not stated), the “activity, negative = toxicity” value was inactive: 7.07%. For `COc1ccc(C2CC(c3ccccc3)=NN2C(=O)COC(=O)c2ccc(S(C)(=O)=O)cc2)cc1` (configuration not stated), the “activity, negative = toxicity” value was inactive: -1.57%. With `CC(=O)Nc1cccc(-c2ccnc3c2CC(C(=O)Nc2ccc(C(C)C)cc2)O3)c1` (configuration not stated) the Potency was inconclusive [cytotoxic, single point]. In the case of `O=C(NC1CCCCC1)C(c1ccccc1)N(Cc1ccco1)C(=O)Cn1cnc2ccccc21` (configuration not stated), the “activity, negative = toxicity” value is reported as inactive: -10%. With `CN(NC(=O)C(=O)NCc1ccco1)C(=O)Nc1ccc(Cl)cc1` the activity, negative = toxicity was inconclusive: -0.408%. With `Cc1ccc2nc3c(c(N)c2c1)CCN3C` the Potency was inconclusive [cytotoxic, single point]. In the case of `CCCCC(C(=O)NC1CCCC1)N(Cc1ccco1)C(=O)Cn1nnc(-c2ccc(F)cc2)n1` (configuration not stated), the “activity, negative = toxicity” value is reported as inactive: -15.4%. With `O=c1cc(N2CCCCC2)c(-c2ccccc2)nn1Cc1cccc(F)c1` the Potency was inconclusive [cytotoxic, single point]. In the case of `C[C@@H]1CN([C@H](C)CO)C(=O)c2cc(NS(=O)(=O)c3ccc(F)cc3)ccc2O[C@@H]1CN(C)Cc1ccc(Cl)c(Cl)c1`, the Potency is reported as inconclusive [cytotoxic, single point]. With `Cc1ccc2c(c1)c1c(n2CC(O)CN2CCCCCC2)CCCC1` (configuration not stated) the Potency was inconclusive [cytotoxic, single point]. For `Cc1nc2ccc(NS(=O)(=O)c3ccc(C)c(C)c3)cc2s1`, the Potency was inconclusive [cytotoxic, single point]. With `COc1ccc2c(c1)NC(C)(C)C=C2C` the “activity, negative = toxicity” value was inactive: -19.9%. With `CN1C(=O)C(N=Nc2ccc([N+](=O)[O-])cc2)SC1=S` (configuration not stated) the Potency was inconclusive [cytotoxic, full curve, poor fit]. With `Cc1cccc(NC(=O)CN(C)C(C)C(=O)Nc2ccc(S(=O)(=O)N3CCCC3)cc2)c1C` (configuration not stated) the “activity, negative = toxicity” value was inactive: 0.696%. With `CCOc1cc(/C=C\[N+](=O)[O-])ccc1OCC(=O)Nc1ccccc1C` the Potency was active: 6.51 µM. In the case of `COc1cccc(Nc2nc(C(N)c3ccccc3Cl)cs2)n1` (configuration not stated), the Potency is reported as inconclusive [cytotoxic, single point]. With `COc1ccccc1S(=O)(=O)N(C)C[C@@H]1OCc2cn(nn2)CCCC(=O)N([C@H](C)CO)C[C@H]1C` the “activity, negative = toxicity” value was inactive: -5.26%. In the case of `O=C(C[C@@H]1C[C@H]2c3cc(NC(=O)C4CCC4)ccc3O[C@H]2[C@@H](CO)O1)NCc1ccc(-c2ccccc2)cc1`, the Potency is reported as inconclusive [cytotoxic, partial curve]. For `CCN(c1cccc(C)c1)S(=O)(=O)c1cccc(C(=O)O)c1`, the “activity, negative = toxicity” value was inactive: 5.11%. With `Nc1ccccc1SC(CC(=O)c1ccccc1)c1ccccc1` (configuration not stated) the Potency was inconclusive [cytotoxic, single point]. For `O=C(Nc1ncc([N+](=O)[O-])s1)c1cccs1`, the Potency was active: 20.6 µM. With `CN(C)/C=N/n1cnc2ccccc2c1=O` the “activity, negative = toxicity” value was inactive: 29%. For `O=C(NC1CCCCC1)C(c1cccs1)N(C(=O)c1ccccn1)c1ccccc1` (configuration not stated), the “activity, negative = toxicity” value was inactive: 5.49%. For `CN(C)CCCN1c2ccc3ccccc3c2Sc2cccc(Cl)c21`, the Potency was inconclusive [cytotoxic, single point]. With `COc1ccc(NC(=O)CCNS(=O)(=O)c2ccc3c(c2)c(=O)n(C)c(=O)n3C)cc1` the “activity, negative = toxicity” value was inactive: -15.4%. With `COc1ccccc1CNC(=O)c1cc(-c2cc(Cl)ccc2C)n[nH]1` the Potency was inconclusive [cytotoxic, single point]. In the case of `CCOc1ccc(CN(C)C(=O)CCl)cc1`, the Potency is reported as inconclusive [cytotoxic, single point]. For `COCCNC(=O)/C(C#N)=C/C=C/c1ccccc1[N+](=O)[O-]`, the Potency was inconclusive [cytotoxic, partial curve]. For `Cc1ccc(-c2cc(C(=O)N/N=C/C=C/c3ccco3)c3ccccc3n2)cc1C`, the activity, negative = toxicity was inconclusive: -0.365% [cytotoxic]. For `COc1ccc(NC(=O)c2ccc([N+](=O)[O-])o2)cc1`, the Potency was inconclusive [cytotoxic, partial curve]. With `Cc1ccc(C(=O)c2oc3ccccc3c2NC(=O)c2cc(-c3ccccc3O)n[nH]2)cc1` the Potency was inconclusive [cytotoxic, single point]. For `O=C1OC(c2ccccc2)=C/C1=C/N1CCOCC1`, the “activity, negative = toxicity” value was inactive: -21.1%. With `O=C(Nc1nnc(S(=O)(=O)N2CCCCC2)s1)c1ccccc1Br` the “activity, negative = toxicity” value was inactive: -6.22%. For `C#Cc1ccc(CN2CCC(C(=O)Nc3ccc(Oc4ccccc4)nc3)CC2)cc1`, the Potency was inconclusive [cytotoxic, single point]. With `C=C1c2cccc(O)c2C(=O)C2C(=O)[C@]3(O)C(=O)C(C(N)=O)C(=O)[C@@H](N(C)C)[C@@H]3[C@@H](O)[C@H]12` (some centres not stated) the Potency was inconclusive [cytotoxic, partial curve].
